Assay results as given in publication PMC5715026.
These are yes or no findings as the source states them, for the method shown. For part of these data: Binding seen in cells or lysates may run through a third protein. Some entries that bind do so weakly or less than the wild type. For part of these data: Where a sequence is shown, tags or fusion partners need not be part of it. One block for each molecule: values may come before it.

Sequences of proteins named here, by UniProt entry; tags and fusion partners are left off.
UniProt O95235: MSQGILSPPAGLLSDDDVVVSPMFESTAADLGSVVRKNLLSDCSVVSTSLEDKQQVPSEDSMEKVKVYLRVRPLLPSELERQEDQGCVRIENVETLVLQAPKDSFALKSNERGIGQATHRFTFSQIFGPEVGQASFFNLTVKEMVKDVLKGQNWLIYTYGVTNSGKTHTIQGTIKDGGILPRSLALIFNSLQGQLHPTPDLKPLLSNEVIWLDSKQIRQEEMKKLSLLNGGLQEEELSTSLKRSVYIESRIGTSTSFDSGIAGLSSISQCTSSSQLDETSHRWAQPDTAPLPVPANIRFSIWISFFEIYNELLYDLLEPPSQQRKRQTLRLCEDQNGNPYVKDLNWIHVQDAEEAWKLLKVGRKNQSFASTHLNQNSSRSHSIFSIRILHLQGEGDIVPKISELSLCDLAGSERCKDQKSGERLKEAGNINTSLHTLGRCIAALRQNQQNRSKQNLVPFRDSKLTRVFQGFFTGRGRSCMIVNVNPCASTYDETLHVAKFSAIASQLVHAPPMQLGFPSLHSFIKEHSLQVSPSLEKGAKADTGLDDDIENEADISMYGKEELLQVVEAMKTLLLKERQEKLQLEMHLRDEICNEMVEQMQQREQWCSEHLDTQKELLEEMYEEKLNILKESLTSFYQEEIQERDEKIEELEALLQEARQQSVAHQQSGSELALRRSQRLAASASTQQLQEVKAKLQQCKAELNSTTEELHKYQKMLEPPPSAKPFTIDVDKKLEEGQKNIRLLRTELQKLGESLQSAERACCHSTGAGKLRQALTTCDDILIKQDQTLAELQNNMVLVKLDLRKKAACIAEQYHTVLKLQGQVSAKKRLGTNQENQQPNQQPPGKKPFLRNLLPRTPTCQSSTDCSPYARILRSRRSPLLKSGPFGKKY
UniProt Q96GD4: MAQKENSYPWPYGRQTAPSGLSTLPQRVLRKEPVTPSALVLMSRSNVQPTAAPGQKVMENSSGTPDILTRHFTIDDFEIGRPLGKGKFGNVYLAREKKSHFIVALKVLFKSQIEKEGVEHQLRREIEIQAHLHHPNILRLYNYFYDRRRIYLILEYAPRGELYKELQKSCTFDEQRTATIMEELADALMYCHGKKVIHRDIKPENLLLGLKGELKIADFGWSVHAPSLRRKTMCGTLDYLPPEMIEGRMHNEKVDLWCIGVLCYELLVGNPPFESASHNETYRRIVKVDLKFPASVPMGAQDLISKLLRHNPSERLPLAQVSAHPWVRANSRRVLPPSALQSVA
UniProt E9PY46: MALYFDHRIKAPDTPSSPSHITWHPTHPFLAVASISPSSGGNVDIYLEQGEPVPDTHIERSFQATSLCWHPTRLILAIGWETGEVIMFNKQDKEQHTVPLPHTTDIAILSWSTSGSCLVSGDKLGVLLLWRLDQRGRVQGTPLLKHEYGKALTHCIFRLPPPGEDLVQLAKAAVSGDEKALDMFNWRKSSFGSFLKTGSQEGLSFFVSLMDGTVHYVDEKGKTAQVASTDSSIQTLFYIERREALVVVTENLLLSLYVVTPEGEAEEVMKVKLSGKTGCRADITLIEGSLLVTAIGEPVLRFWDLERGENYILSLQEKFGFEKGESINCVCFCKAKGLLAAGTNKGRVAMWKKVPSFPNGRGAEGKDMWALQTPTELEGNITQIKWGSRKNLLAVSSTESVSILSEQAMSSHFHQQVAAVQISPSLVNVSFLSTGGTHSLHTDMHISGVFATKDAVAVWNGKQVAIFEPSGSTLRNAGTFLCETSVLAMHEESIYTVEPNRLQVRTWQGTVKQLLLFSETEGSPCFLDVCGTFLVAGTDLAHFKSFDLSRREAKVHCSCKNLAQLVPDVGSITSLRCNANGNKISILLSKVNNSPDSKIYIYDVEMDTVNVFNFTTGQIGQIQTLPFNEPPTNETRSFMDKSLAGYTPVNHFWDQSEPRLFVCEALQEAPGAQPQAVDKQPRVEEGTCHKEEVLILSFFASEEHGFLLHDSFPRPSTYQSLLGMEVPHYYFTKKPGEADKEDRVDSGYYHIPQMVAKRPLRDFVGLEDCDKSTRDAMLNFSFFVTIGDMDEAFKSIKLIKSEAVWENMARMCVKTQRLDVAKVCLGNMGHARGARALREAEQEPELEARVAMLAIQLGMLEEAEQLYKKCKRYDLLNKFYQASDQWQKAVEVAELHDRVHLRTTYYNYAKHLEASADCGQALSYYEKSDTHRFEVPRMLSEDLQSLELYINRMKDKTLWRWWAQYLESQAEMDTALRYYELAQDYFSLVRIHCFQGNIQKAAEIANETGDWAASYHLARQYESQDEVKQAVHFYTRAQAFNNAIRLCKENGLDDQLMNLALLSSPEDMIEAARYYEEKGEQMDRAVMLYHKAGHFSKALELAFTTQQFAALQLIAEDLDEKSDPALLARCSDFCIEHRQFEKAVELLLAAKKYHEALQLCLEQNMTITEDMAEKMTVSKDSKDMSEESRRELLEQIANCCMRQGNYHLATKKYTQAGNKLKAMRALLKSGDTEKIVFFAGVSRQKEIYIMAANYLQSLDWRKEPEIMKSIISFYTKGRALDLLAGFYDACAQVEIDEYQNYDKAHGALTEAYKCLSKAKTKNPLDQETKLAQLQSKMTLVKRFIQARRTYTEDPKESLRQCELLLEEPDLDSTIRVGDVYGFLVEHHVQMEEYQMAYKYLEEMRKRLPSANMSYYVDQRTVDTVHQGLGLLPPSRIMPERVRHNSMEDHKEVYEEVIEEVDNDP

Tests used:
[1] = target: T1, Flag-IFT27 (pCMV14-IFT27-3xFlag, transfected in HeLa Kyoto) (UniProt Q9BW83); test: co-IP; Flag M2 agarose immunoprecipitation, 2 h at 4 °C, mitotic HeLa Kyoto cells transfected with Flag-IFT27 and Myc-Aurora B; western blot
T1 sequence: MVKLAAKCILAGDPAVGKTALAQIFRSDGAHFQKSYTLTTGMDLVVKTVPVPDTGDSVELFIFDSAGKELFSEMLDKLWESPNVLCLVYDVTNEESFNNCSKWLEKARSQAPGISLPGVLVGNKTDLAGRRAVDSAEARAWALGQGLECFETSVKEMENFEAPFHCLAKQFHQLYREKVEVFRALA

[2] = target: GFP-MKLP2 (HeLa Kyoto BAC line, under its endogenous promotor) (UniProt O95235); test: co-IP; GFP-Trap A immunoprecipitation, 2 h at 4 °C, mitotic HeLa Kyoto BAC line expressing GFP-MKLP2; western blot
[3] = target: T2, FLAG-tagged IFT46 (stably expressed in IMCD cells) (UniProt Q9DB07); test: co-IP; FLAG immunoprecipitation on mitotic shake-off of IMCD cells stably expressing FLAG-tagged IFT27, IFT52 or IFT46; western blot
T2 sequence: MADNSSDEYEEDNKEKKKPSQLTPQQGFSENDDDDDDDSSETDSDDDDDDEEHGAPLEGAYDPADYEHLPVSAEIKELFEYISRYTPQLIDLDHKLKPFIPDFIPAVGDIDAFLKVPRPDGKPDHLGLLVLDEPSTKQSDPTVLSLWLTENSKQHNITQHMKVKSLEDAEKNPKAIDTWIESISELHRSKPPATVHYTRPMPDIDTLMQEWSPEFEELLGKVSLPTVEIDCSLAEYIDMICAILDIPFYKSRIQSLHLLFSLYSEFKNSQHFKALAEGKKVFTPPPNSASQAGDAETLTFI

[4] = target: T3, FLAG-tagged IFT52 (stably expressed in IMCD cells) (UniProt Q62559); test: as above
T3 sequence: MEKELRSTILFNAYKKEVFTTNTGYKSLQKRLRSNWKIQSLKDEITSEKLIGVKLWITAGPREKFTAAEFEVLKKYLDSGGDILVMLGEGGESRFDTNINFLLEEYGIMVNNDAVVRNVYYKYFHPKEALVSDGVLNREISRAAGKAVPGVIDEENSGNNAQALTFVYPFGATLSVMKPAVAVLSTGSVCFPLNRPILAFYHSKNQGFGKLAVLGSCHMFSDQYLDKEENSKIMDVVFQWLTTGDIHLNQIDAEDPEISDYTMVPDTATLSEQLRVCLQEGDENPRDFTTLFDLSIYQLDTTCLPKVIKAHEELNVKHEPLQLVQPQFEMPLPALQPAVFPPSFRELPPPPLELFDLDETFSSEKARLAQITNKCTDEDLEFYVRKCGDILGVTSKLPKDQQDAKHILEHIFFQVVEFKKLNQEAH

[5] = target: T4, FLAG-tagged IFT27 (stably expressed in IMCD cells) (UniProt Q9D0P8); test: as above
T4 sequence: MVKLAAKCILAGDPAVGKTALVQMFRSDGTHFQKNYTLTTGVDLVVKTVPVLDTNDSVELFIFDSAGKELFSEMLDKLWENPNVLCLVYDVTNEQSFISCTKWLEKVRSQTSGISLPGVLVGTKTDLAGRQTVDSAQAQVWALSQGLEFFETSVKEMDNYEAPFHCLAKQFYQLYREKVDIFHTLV

[6] = target: T5, Lex-mMKLP2 C-term (aa 530-887) (mouse (from the name mMKLP2)) (UniProt P97329); test: two-hybrid; S. cerevisiae reporter strain L40, pGAD and pLex fusions, growth without Histidine
T5 sequence: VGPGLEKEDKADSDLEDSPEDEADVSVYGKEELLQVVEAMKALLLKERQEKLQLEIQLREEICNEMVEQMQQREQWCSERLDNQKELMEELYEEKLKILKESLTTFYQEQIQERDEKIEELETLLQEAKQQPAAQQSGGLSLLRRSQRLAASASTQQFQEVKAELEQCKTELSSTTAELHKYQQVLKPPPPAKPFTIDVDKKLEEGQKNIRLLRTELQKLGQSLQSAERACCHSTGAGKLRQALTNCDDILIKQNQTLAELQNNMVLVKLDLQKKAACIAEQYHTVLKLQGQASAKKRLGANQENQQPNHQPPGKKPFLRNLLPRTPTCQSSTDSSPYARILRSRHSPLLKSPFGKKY

[7] = target: T6, Lex-mMKLP2 N-term (aa 1-529) (mouse (from the name mMKLP2)) (UniProt P97329); test: as above
T6 sequence: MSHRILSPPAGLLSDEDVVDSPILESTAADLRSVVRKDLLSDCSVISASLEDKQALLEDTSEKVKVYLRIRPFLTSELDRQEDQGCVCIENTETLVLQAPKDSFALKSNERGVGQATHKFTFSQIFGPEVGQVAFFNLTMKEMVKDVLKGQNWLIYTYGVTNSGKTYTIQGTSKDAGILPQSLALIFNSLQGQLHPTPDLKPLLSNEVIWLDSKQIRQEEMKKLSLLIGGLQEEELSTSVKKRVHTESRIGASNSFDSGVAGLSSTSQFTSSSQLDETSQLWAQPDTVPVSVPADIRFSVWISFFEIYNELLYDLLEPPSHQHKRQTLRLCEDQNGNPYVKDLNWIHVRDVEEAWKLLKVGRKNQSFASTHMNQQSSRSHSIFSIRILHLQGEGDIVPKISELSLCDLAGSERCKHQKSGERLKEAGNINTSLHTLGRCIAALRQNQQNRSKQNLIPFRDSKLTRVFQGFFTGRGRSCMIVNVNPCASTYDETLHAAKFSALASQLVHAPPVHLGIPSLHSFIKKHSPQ

[8] = target: T7, Lex-mMKLP2 M1-Q665 (aa 1-665) (mouse (from the name mMKLP2)) (UniProt P97329); test: as above
T7 sequence: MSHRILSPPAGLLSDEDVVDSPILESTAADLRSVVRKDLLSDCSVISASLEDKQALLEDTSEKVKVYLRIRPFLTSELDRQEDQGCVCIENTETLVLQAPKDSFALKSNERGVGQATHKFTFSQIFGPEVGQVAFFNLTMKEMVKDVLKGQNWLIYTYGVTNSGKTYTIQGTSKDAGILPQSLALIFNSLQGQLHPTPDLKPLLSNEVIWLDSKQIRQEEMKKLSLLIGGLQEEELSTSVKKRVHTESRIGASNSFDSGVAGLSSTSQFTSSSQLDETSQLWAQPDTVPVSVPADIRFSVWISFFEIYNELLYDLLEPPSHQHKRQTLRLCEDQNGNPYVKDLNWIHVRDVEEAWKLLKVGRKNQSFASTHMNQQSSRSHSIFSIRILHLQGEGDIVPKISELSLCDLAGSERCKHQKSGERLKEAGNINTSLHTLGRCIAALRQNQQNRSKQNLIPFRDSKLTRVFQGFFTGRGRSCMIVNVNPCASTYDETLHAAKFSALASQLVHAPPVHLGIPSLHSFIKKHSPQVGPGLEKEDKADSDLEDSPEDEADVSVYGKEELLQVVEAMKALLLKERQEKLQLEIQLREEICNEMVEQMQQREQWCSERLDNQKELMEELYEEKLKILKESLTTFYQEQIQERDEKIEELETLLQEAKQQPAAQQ

Molecule: Aurora B (endogenous, HeLa Kyoto) (from UniProt Q96GD4 1-344) (enzyme)
binding [2]: binds

Molecule: IFT140 (endogenous, IMCD cells) (from UniProt E9PY46 1-1464)
binding [3]: no binding
binding [4]: no binding
binding [5]: no binding

B1: IFT88 (endogenous, HeLa Kyoto) (protein, UniProt Q13099 1-824)
chain: MMQNVHLAPETDEDDLYSGYNDYNPIYDIEELENDAAFQQAVRTSHGRRPPITAKISSTAVTRPIATGYGSKTSLASSIGRPMTGAIQDGVTRPMTAVRAAGFTKAALRGSAFDPLSQSRGPASPLEAKKKDSPEEKIKQLEKEVNELVEESCIANSCGDLKLALEKAKDAGRKERVLVRQREQVTTPENINLDLTYSVLFNLASQYSVNEMYAEALNTYQVIVKNKMFSNAGILKMNMGNIYLKQRNYSKAIKFYRMALDQVPSVNKQMRIKIMQNIGVTFIQAGQYSDAINSYEHIMSMAPNLKAGYNLTICYFAIGDREKMKKAFQKLITVPLEIDEDKYISPSDDPHTNLVTEAIKNDHLRQMERERKAMAEKYIMTSAKLIAPVIETSFAAGYDWCVEVVKASQYVELANDLEINKAVTYLRQKDYNQAVEILKVLEKKDSRVKSAAATNLSALYYMGKDFAQASSYADIAVNSDRYNPAALTNKGNTVFANGDYEKAAEFYKEALRNDSSCTEALYNIGLTYEKLNRLDEALDCFLKLHAILRNSAEVLYQIANIYELMENPSQAIEWLMQVVSVIPTDPQVLSKLGELYDREGDKSQAFQYYYESYRYFPCNIEVIEWLGAYYIDTQFWEKAIQYFERASLIQPTQVKWQLMVASCFRRSGNYQKALDTYKDTHRKFPENVECLRFLVRLCTDLGLKDAQEYARKLKRLEKMKEIREQRIKSGRDGSGGSRGKREGSASGDSGQNYSASSKGERLSARLRALPGTNEPYESSSNKEIDASYVDPLGPQIERPKTAAKKRIDEDDFADEELGDDLLPE
binding [2]: binds

Second part, the molecule after the results:

binding [1]: binds
Molecule: Myc-Aurora B (transfected in HeLa Kyoto) (from UniProt Q96GD4 1-344) (enzyme)

binding [6]: binds
binding [7]: no binding
binding [8]: binds
B2: GAD-IFT88 (pGAD-IFT88) (protein, UniProt Q13099 1-824)
chain: B1 chain
